Data on one molecule can be found in patent CN114028562A.

This assay addresses 天然TSLP. The assay is described as follows: cell-based or functional assay.

B1: QX008N(HZD8G2-57) (antibody, part only; not given: Light chain, part only)
heavy: EVQLVESGGGLVQPGGSLRLSCAASGFSLSSYYMSWVRQAPGKGLEWVGFISYGGSAYHATWAQGRFTISKDNSKNTLYLQMNSLRAEDTAVYYCAREFRSMTYGAEWGIWGQGTLVTVSS[human IgG1 constant region not shown]
Molecule B1 gave an IC50, inhibition of natural TSLP-induced STAT5 phosphorylation in SW756-STAT5-Luciferase reporter cells of 0.462 ng/mL.
